# Reference: the supplement of paper PMC11417369
# Some of the results follow.
# Tested on: PF3D7_0420300 AP2 domain 1 (GST-tagged)
# Assay: gcPBM binding intensity (ln(normalized median fluorescence intensity)); higher = stronger DNA binding
# In short: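 GST-tagged P. falciparum DNA-binding domains produced in E. coli were incubated for 1 h on an Agilent 4 × 180k array of primer-extended double-stranded 36-bp intergenic genomic probes with negative controls. Binding intensity is the highest Masliner-normalised natural-log median intensity across replicate spots of either probe orientation, with bound protein detected by Alexa488 anti-GST antibody at 488 nm.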
row,Sequence,gcPBM binding intensity (ln)
1,TTTGCGTAGAAATGTGTGCACTGATATTTATAATAA [GTGCAC_site9526],9.29
2,TGAACTCATAGGAAAACACACATATGGGTAATATAT [CACACA_site187],9.6
3,ATTTTCCTTTTACCACGTACACATAAAAACGTTATA [XGTACX_site3595],9.4
4,AAAAAAAATCAAATGGGTACTTATTCTTAATAATAT [XGTACX_site3792],9.12
5,TATGAAATTAGAATTACACACAGGAAAATAAAATGC [CACACA_site6822],9.96
6,TGAATAAATATATATACACACATATCTGTATTTATT [CACACA_site4991],9.55
7,TATATATATACCAACACACATACATATATATATATA [CACACA_site1795],9.46
8,AAATTTGGCAGACACACACACACACGCACACGCACA [CACACA_site6423],10.3
9,CCCTCCCCATGTTTAGTGCAAAAATATTTGAAATTG [GTGCAC_site9873],10.2
10,AGGTATGTCTATAAATGTACATATGAGTTCAATTTC [XGTACX_site2244],9.11
11,CACAGTGATATAAAAACACACATGAATTCTAATTTC [CACACA_site6884],9.37
12,CATAAAAATATTAATAAACACACAATCAGATATTGA [CACACA_site9032],9.66
13,AAATATATATAAACAAGTACATATTTAAAAAAAGGA [XGTACX_site2631],9.44
14,ATAACACAAAATTGTTGTACACGTGTTAATAAGTGA [XGTACX_site4452],9.53
15,ATATATATGAAACACACACACAAAAAAAAAAAAAAA [CACACA_site3647],9.69
16,TAAAGTTATGCAATAACACACATATACAATACATAT [CACACA_site6698],9.64
17,AATATTTATATAAATGCATGCTGATACAACAGTCTT [TGCATGCA_site21],9.25
18,ATATTACGCACAAAAAAAAAAAAAAAAAAAAAAAAA [CACACA_negctrl_site941],8.77
19,ATGATGTGCTTTAAAAGTACTTAAGTTATATTCTTT [XGTACX_site7127],9.27
20,AAAATTAAAATTTTCACACAGATATATTTACAATTT [CACACA_site5692],9.1
21,TAAATTAAAAAAAATACACACACACCGACACATATA [CACACA_site9084],10
22,TTCGTAACTGATTCAACACACAAAAGGGGGAAAATT [CACACA_site1754],9.57

row,Sequence,gcPBM binding intensity (ln)
1,AAAAAGAAGAATAATACACACAAATTACTTTATATA [CACACA_site6984],9.54
2,ATATTATAGAAATATACACACATTGTTTTATAGCAT [CACACA_site7177],9.54
3,AATTACAAATATTCATGTACATATTTATAAATACAT [XGTACX_site5430],9.19
4,ATATATATATATATGTGTACATATATTAAGATATAT [XGTACX_site1065],9.29
5,TATGTTATATAATATTGTACACAAAATGGTTTCTAT [XGTACX_site7686],9.2
6,TATTAAATATTGTATACATGCAAATACTAGAAAATT [TGCATGCA_site370],9.32
7,AATAATATAAATATTACACACTAATTGTATTATAGA [CACACA_site6347],9.29
8,TATATAACCGAGTGCACACACAAAAAAAAAGTGAAC [CACACA_site6806],10
9,AGGAAACAAGAAATGAAGAATCATGTAGAAGGCCCA [GTGCAC_negctrl_site187],9.33
10,ATAAATAATAAAAAATGTACACATATAAATATAAAG [XGTACX_site727],9.47
11,ATGATGAAAATAGAAATACACACTAAAAAATAAAAT [CACACA_site1136],9.8
12,AAAACATGTTCAACATGTACACAACAGGATGAATAT [XGTACX_site506],9.57
13,CTTACTTACTTACTCACACACATATACAAAGAAAAA [CACACA_site3347],9.64
14,AAATATATGTTATATGTGCACTTTTTTTTTTTTTTT [GTGCAC_site9667],9.24
15,TAAAATGAATATAGGTGTACTTAAAAAAAAGTAAAA [XGTACX_site4613],9.12
16,TAAATTCTTTATAATCGTACATAAATAGAAAAATAA [XGTACX_site601],8.95
17,TAAAAGAAATAATATACACACATATATAAAAATAAA [CACACA_site1329],9.6
18,TATCGAGCCATTTTTACATGCAATTATACATAATTT [TGCATGCA_site987],9.26
19,CATGTATACTATAATACACACTATAAAATATACACC [CACACA_site7121],9.58
20,TTCAAATAATTTAAATGTACGTTGCTTTATTAAAAG [XGTACX_site3674],9
21,GTTTTGTACATATTCTCACACATATAAAAATACCCA [CACACA_site4446],9.37
22,TTCATAATAAAAAGGTGTACATATATATATATATAT [XGTACX_site2829],9.39

row,Sequence,gcPBM binding intensity (ln)
1,AAGCATTTAATGTTTTATATAACATGTATTTTTTAT [CACACA_negctrl_site673],9.3
2,TTTATATGTATACAAACATATAAATATAAATGTATT [TGCATGCA_negctrl_site346],9.12
3,TGTTCTATGATTTGTACACACTTTTTTTTAAAATGC [CACACA_site5558],9.38
4,TATATATACATATACACACACACACCGATATATATA [CACACA_site8706],10.2
5,GAATGCATGTAAATATGTACATATATTTAAAAATTT [XGTACX_site6032],9.07
6,TGTTAAAAGGTTAAATTAAAATAACCTCCGGAAATT [GTGCAC_negctrl_site236],9.02
7,ATAAATATATATTTACGTACATATTATATATATATA [XGTACX_site6172],9.27
8,AAAAAAATTTCACATTGTACTTTAATAATATACTAC [XGTACX_site7264],9.07
9,ACATATAAATTGTGTACACATATATATATATTTTTT [CACACA_site5946],9.4
10,TTATATAATCCTTTCAAACACACAAAATATAATTAA [CACACA_site1830],9.28
11,AGTGAAAAAAAATTTACACACATAAAATATAAACGA [CACACA_site3724],9.8
12,AAATAAAATACATATAAACACACATATAAACCAACA [CACACA_site8789],10
13,AAAAAAAATATAAGTGGTACTCACATAAAGACATAT [XGTACX_site3709],9.54
14,TAATACTTTTAATCTACACACGCTGAGACATGCTTT [CACACA_site1484],9.22
15,TTTTTAGTTCATTAAACACACAAAAAAAAAAATAAA [CACACA_site6035],9.22
16,TTTTTTATTCTTTTTGCACACAGGAAATTTACAGAT [CACACA_site1090],9.46
17,AAAATAAAAAGAAAAAATAAAAAGAAAAAATAAAAA [CACACA_negctrl_site120],9.35
18,ATATTTATAACTTGTACACACAAATATGCATATATA [CACACA_site7583],9.56
19,TTAAAATTTTTTTTTTTTTTTTTTTTTTTTTTTTTC [CACACA_negctrl_site957],8.62
20,TTATTATTCCCTCATTTTGTTACCATTATTTCAATT [CACACA_negctrl_site1023],9.69
21,TTGTTAAAATTATTAAGTTAAATATCGATTTGTAAA [XGTACX_negctrl_site429],8.81
22,TATAAGTTTATATATACACACATATATATATATATA [CACACA_site3274],9.35

row,Sequence,gcPBM binding intensity (ln)
1,TACAAAAAAAGATGATGTACAATGAAAAATAAGAAA [XGTACX_site5840],9.6
2,ATAAATAATTGTAGTTGTACATGATATTTTTATTAC [XGTACX_site550],9.25
3,AAAAAAAAAAAAAACACACACACAAATACAAATACA [CACACA_site414],10.1
4,AAATGGACCTAATTATCACACATTATACTCGTTTTC [CACACA_site5996],9.47
5,ATATATCATAATAAAAGTACTTATATATTTTATATA [XGTACX_site560],9.11
6,AAAATAAATAAATATACACACCATATATATATTTTT [CACACA_site5573],9.57
7,TTTAACGTTGAATATACACACATATATTTATTTATA [CACACA_site7695],9.39
8,AAAATGTACTTTTTCTAAAGAGTAATGATGCTTGAT [CACACA_negctrl_site1124],9.02
9,AATCCTTTAAAACACACACACAAAAAAAAAAAAAAA [CACACA_site642],9.63
10,TATAGTAAAATTAGGGTGCTTTTGTAACAAAAAAAA,9.23
11,TTATTTTCTTTCTATGCACACGCACGTATTTGCCCA [CACACA_site9104],9.31
12,TGCTTCATAAATAAAACATGCAATATAGAAATTAAA [TGCATGCA_site690],8.97
13,AGAGTAGGAAATGGAAAAATAAAATAAATAAATAAA [XGTACX_negctrl_site69],9.1
14,AAATATATATACCACACACACATACCTCTATTTGTA [CACACA_site1854],10.1
15,TTTTGTAAAAGGTATATATATATATATATATATATA [GTGCAC_negctrl_site734],8.9
16,AATAAAAAAATAAAAAAAAAAAAAAATAAAAAAAAA [GTGCAC_negctrl_site12],9.11
17,CGTATTTTAATATTTACACACTTATTTTTTATATAA [CACACA_site125],9.42
18,TATAGCATATTTCACACACACATAATGAATATTATA [CACACA_site3545],9.8
19,TTTATATAGAAAAATTGTACGAATTACTTTTTTATA [XGTACX_site6843],8.85
20,AATAAAATAATAGGCACACATATATATATATATTAT [CACACA_site273],9.63
21,ATATATCTACATATATGTACATATATGTATATGTAT [XGTACX_site5432],9.21
22,ATATCCTACTTCTAGTGTACATATATGGACTGATGA [XGTACX_site3683],9.22
